According to US20240043559A1 (SHANGHAI HENLIUS BIOTECH, published 2024):

T1: human C-terminal ECD of GPC3 (human, UniProt P51654 359-554)
T1 construct: Bought protein (LSBIO # LS-G13157-10); also called human GPC3 C-terminal domain; GPC3 C-terminal (LSBIO # LS-G13157-10)
T1 sequence: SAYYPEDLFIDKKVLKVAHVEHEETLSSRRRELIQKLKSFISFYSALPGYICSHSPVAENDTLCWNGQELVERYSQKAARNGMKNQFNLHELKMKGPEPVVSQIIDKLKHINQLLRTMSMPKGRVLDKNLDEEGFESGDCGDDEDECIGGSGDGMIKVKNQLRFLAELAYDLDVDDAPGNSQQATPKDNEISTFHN


Target: T1, human C-terminal ECD of GPC3
Experiment: ELISA on plate-coated human GPC3 C-terminal domain

| binding result | Binder |
| --- | --- |
| binds | humanized 1B01 VHH-Fc (Fc fusion, also called anti-GPC3 antibody 1B01) QVQLVESGGGLVQPGGSLRLSCAAVGLPFSNYAMGWFRQAPGKGLEFVSAVSANGGNEYYADSVKGRFTISRDNSKNTLYLQMNSLRAEDTAVYYCATVRRRGGTFTVGSYRGQGTQVTVSS[human IgG1 Fc not shown] |
| binds | afucosylated (AF) 1B01 VHH-Fc (Fc fusion, afucosylated (AF) Fc glycan, also called 1B01 VHH-Fc AF; afycosylated (AF) 1B01 VHH-Fc) QVQLVESGGGLVQPGGSLRLSCAAVGLPFSNYAMGWFRQAPGKGLEFVSAVSANGGNEYYADSVKGRFTISRDNSKNTLYLQMNSLRAEDTAVYYCATVRRRGGTFTVGSYRGQGTQVTVSS[human IgG1 Fc not shown] |
